# Measurements as given in PubChem BioAssay AID686978 (National Center for Advancing Translational Sciences (NCATS), 2013).
# Among all 420,000 compounds or so, about 64,000 (15%) were called active. Inconclusive results, whose numbers are uncertain, are shown with a selection of clear calls. Calls come from the whole dose curve; as a rule, active = well fitted inhibition curve with a large enough effect; inconclusive = small, poorly fitted or top-dose-only effect; inactive = flat fitted curve, though single readings scatter. No potency is given beside an inconclusive call; the fits are too rough.
# Test: qHTS for Inhibitors of human tyrosyl-DNA phosphodiesterase 1 (TDP1): qHTS in cells in absence of CPT; note: nearly all actives have a fitted effect of over 55% in size
# Settings: DT40 Tdp1-/- hTDP1 cells, no CPT, ATP luminescence, 48 h; series mostly up to 46.2 µM
# Outline: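 Chicken DT40 Tdp1-/- cells complemented with human TDP1, screened without camptothecin (DMSO vehicle only), 400 cells/well. Compounds pin-transferred, cells incubated at 37 °C for at least 48 hr. Growth read as ATP-dependent luminescence (CellTiter-Glo, 30 min at RT).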
# Potency is the fitted concentration of half-maximal effect; tags give direction and shape of the fitted curve.
row,SMILES,Potency
1,CC(C)c1ccccc1NC(=S)NC(C)c1ccccc1 (centres undefined),active: 16.4 µM
2,O=[N+]([O-])c1ccc(N/N=C/c2cccc(O)c2O)cc1,active: 14.6 µM
3,Cc1c(O)ccc(C(=O)CN2CCN(Cc3ccccc3)CC2)c1O,inactive
4,CCOC(=O)c1cnc2c(Cl)cc(Cl)cc2c1NCCCN1CCOCC1,"inconclusive [inhibitor, partial curve]"
5,Cc1cc(C(C)(C)C)cc(C)c1COC(=O)CN1C(=O)NC2(CCCC2)C1=O,"inconclusive [inhibitor, single point]"
6,C=CC[C@@H](CC(=O)NCCO)C(=O)N[C@@H](C)COC(=O)[C@H](CC=C)CC(=O)OC(C)(C)C,inactive
7,COc1cccc(C(=O)NC2CC(=O)N(c3ccc4c(c3)OCCO4)C2)c1OC (centres undefined),inactive
8,O=C(Oc1c(-c2ccccc2)c(=O)n2c3c(cccc13)CC2)c1ccccc1,"inconclusive [inhibitor, partial curve]"
9,Cn1cc(C(=O)c2ccccc2C(=O)O)cc1C(=O)C(Cl)(Cl)Cl,inactive
10,COc1ccc(C(=O)Nc2nnc(C(F)(F)F)s2)cc1,"inconclusive [inhibitor, single point]"
11,CCN(CC)S(=O)(=O)c1cc(NC(=O)CNc2c(C)n(C)n(-c3ccccc3)c2=O)ccc1C,inactive
12,C=CCc1ccc(OCCCOc2ccc(C)cc2OC)c(OC)c1,"inconclusive [inhibitor, partial curve, poor fit]"
13,O=C1/C(=C/c2ccc(N3CCOCC3)o2)SC(=Nc2ccccc2)N1CCc1c[nH]c2ccccc12,active: 2.06 µM
14,COc1ccc(C2CC(=O)c3ccccc3O2)cc1 (centres undefined),"inconclusive [inhibitor, single point]"
15,CN(C)S(=O)(=O)N(CC(=O)N1CCN(c2ccccc2F)CC1)c1ccccc1,"inconclusive [inhibitor, single point]"
16,Cc1ccsc1/C=N/Nc1ccc(Cl)nn1,"inconclusive [inhibitor, single point]"
17,O=C1CC(c2cccc(Cl)c2)c2cc3c(cc2N1)CCC3 (centres undefined),active: 2.91 µM
18,Cc1ccc(-c2cc(C(F)F)nc(S(C)(=O)=O)n2)cc1,active: 1.3 µM
19,CC(=O)c1ccc(NC(=O)CCc2c(C)nn(-c3ccc(N4CCCCC4)nn3)c2C)cc1,"inconclusive [inhibitor, single point]"
20,COc1ccc2nc(C)cc(SCC(=O)Nc3c(C)cccc3C)c2c1,"inconclusive [inhibitor, full curve]"
21,COc1cc2c(cc1OC)CN(C(=O)C1CCCN(C(=O)c3ccc(Cl)cc3)C1)CC2 (centres undefined),"inconclusive [inhibitor, single point]"
22,COc1cc(C(=O)N/N=C(\C)c2ccc(NC(=O)Cc3ccccc3)cc2)ccc1O,inactive

row,SMILES,Potency
1,Cc1[nH]c2ccccc2c1CCN(Cc1cccnc1)C(=S)NC(C)(C)C,"inconclusive [inhibitor, single point]"
2,O=[N+]([O-])c1ccc(Cl)c(/C=N/n2c(-c3ccncc3)n[nH]c2=S)c1,"inconclusive [inhibitor, single point]"
3,O=C(COc1coc(CN2CCN(c3ccccc3)CC2)cc1=O)Nc1ccccc1F,"inconclusive [inhibitor, single point]"
4,Clc1cc(Cl)c(Cl)cc1Cl,inactive
5,Cc1cccc(C(=O)Nc2ccc(C(=O)N/N=C/c3cccc(C)n3)cc2)c1,"inconclusive [inhibitor, partial curve]"
6,Cc1nc2cc(-c3ccccc3)sc2c(=O)n1N,"inconclusive [inhibitor, partial curve, poor fit]"
7,O=C1c2cccc3cccc(c23)C(=O)N1/N=C/c1ccc(O)cc1O,inactive
8,COc1cc(C2C(C(=O)c3ccc(C)o3)=C(O)C(=O)N2c2cc(C)on2)cc(Br)c1O (centres undefined),"inconclusive [inhibitor, single point]"
9,CN(Cc1ccccc1)C(=O)c1[nH]cnc1C(=O)NC1CCN(C(=O)OC(C)(C)C)CC1,"inconclusive [inhibitor, single point]"
10,Cc1oc2c(C)c3oc(=O)c(CCC(=O)O)c(C)c3cc2c1-c1ccccc1,inactive
11,O=Cc1ccccc1OCc1ccc2c(c1)OCO2,active: 2.91 µM
12,Cc1nc2scc(C)n2c(=O)c1S(=O)(=O)Nc1cccc(C(F)(F)F)c1,"inconclusive [inhibitor, partial curve]"
13,Cc1nonc1OC(C)CNc1ccc([N+](=O)[O-])cc1 (centres undefined),"inconclusive [inhibitor, partial curve, poor fit]"
14,Cc1onc(-c2ccccc2)c1C(=O)Nc1ccc(S(=O)(=O)N2CCOCC2)cc1,active: 23.1 µM
15,O=c1c2ccccc2nc(-c2ccco2)n1Cc1ccccc1,"inconclusive [inhibitor, single point]"
16,CCOC(=O)c1[nH]c2cc3c(cc2c1NC(=O)CN1CCc2ccccc2C1)OCO3,active: 11.6 µM
17,O=C(Nc1ccccc1C(=O)NCc1ccc(Cl)cc1)c1ccco1,"inconclusive [inhibitor, single point]"
18,O=S(=O)(c1cccc(C(F)(F)F)c1)N1CCC(c2cc(-c3cccc4ccccc34)n[nH]2)CC1,"inconclusive [inhibitor, single point]"
19,CCOc1ccc2c(c1)n([O-])c1c([n+]2=O)CCCC1,"inconclusive [inhibitor, single point]"
20,CC(=O)Nc1ccc(-n2c(C)ccc2-c2ccccc2)cc1,"inconclusive [inhibitor, partial curve]"
21,CCC1(C2CCN(Cc3ccc(OC)cc3)CC2)NC(=O)N(CC2COc3ccccc3O2)C1=O (centres undefined),"inconclusive [inhibitor, single point]"
22,O=C(Nc1ccc(NC(=O)c2ccccc2Cl)nc1)c1ccncc1,"inconclusive [inhibitor, single point]"
